Results from the supplement of paper PMC11417369.
Some of the results follow.

test system: PfSIP2 AP2 domain 1 (GST-tagged); experiment: gcPBM binding intensity (ln(normalized median fluorescence intensity)); higher = stronger DNA binding
Procedure, shortened: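 Binding intensity values are the highest Masliner-normalised natural-log median intensity among replicate spots of either probe orientation. The binding step lasted 1 h in 1× PBS with 1% milk, 0.2 mg/ml BSA, 0.5% salmon testes DNA and 0.03% Triton X-100, using GST-tagged P. falciparum DNA-binding domains expressed in E. coli on an Agilent 4 × 180k array of primer-extended double-stranded 36-bp intergenic genomic probes plus negative controls. Alexa488 anti-GST antibody and a 488 nm scan detected bound protein.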

Sequence | gcPBM binding intensity (ln)
AATTCTGGCAAAATAACACACACATATATTTTATAT [CACACA_site9064] | 7.12
GTTATAATTGAACTAGTGCATAAATATATTTTAATT [GTGCAC_site9851] | 9.01
TATCTTTTTTTTAATACACACAAATATATGAAAGTA [CACACA_site4161] | 7.02
ATATAAACACTGAATGCATGCACATATATATATATA [TGCATGCA_site940] | 9.89
GGGGGGGGAGGGTGAATACACACGTAATAATCATAA [CACACA_site1716] | 10.2
TTTTTTTTTACTAACTGTACTAAAGAAAAAAAAGGG [XGTACX_site3519] | 7.58
ATAAAGGAATTTTATACACACAACATATATATATAT [CACACA_site2861] | 9.57
ATGTGTATATGTGTGGGTACTTAATTTTTTTCTTTA [XGTACX_site5351] | 7.25
CGTATTATTATATAAACACACAAGGGGGCATGTATA [CACACA_site745] | 8.25
ATTTGTATATACATATGTACACATGTAGGCTCATAA [XGTACX_site1709] | 7
TTTCGTAAACTTTATGCACACACATATACATATTTC [CACACA_site8146] | 7.6
AGTATAACTTTTGCGCGTACACACATTTATCCTCTT [XGTACX_site429] | 7.38
TTTGAATACTGAATGGTGCAAATTGTTCTCCCCATG | 10.1
TATATTAAAATAATCACACACATCAATTAATGGTAA [CACACA_site1234] | 6.72
TATAATAATATTTACACACGCATATGTTATATATAT [CACACA_site1477] | 7.28
TACAAATGCGTATGTCAATATATGGAGAAATAAATA [TGCATGCA_negctrl_site290] | 7
TGTATATGGTTTGTGCAAAAATTTATTAATGTGTAA [TGCATGCA_negctrl_site374] | 7.35
TGAAAAATATAAGGTTGTACTTACATCGGGAATAAT [XGTACX_site4701] | 7.04
AATTATGTGTGTCAATGTACACGATTTACATAATAT [XGTACX_site5150] | 7.03
AATATATGGTTTCTTGATATTAAATTCAATTTAATG [CACACA_negctrl_site69] | 6.77
ATCCGTGGGTGAAATACACACATGATAATGTGAATG [CACACA_site4662] | 6.65
ATAAATGAACAAGTGGCACACACACCGTATAACTAA [CACACA_site9047] | 6.91
AAAAAAAAAAAAAAAAGTACATATAATAAATAATGA [XGTACX_site7931] | 6.89

Sequence | gcPBM binding intensity (ln)
TATATCTTAATATTTACACACATGCGCACCCATAAA [CACACA_site5349] | 12
ACACATACAACGTGGTGTACAAATAATTATAATCAA [XGTACX_site2287] | 7.14
AATCTTTGTAATAAAAGTACATTAATTTTATTAATA [XGTACX_site8325] | 7.37
TAAGTATATATATTTACACACATTTGTTTTTTTTTA [CACACA_site3784] | 6.79
TTTTAAATACTTTATTGTACATTATATATATATATA [XGTACX_site7021] | 9.44
CATATGTTATATGTAGTGCATTACTATAGGATTTAT [GTGCAC_site9860] | 9.38
TATTTTGCAAAATGTGCATGTTGTGTATTATGTGAC [TGCATGCA_site59] | 8.18
GTATAATTGGAAATTACACACCTTAGAATGTAACAT [CACACA_site4059] | 6.79
ATTATAATATATATATGTACATATATATATAATACT [XGTACX_site5092] | 7.15
TATAATATACTATGTGGTACATATATATATTTATAG [XGTACX_site4556] | 7.03
ATATATAATATTGGTGGTACAAGGGTATTTTATATT [XGTACX_site8215] | 7.13
TCATTTATTTTTCTTTGTACACAAAAGTTTTTATGT [XGTACX_site690] | 7.22
TGGTATGCAATATTGGTGCGTATATATTTTAAAGGG | 8.98
TATTTTTAATTTTTTAATGGTTTAATATTTTTATAT [CACACA_negctrl_site1186] | 6.62
TATTCTAAGATAAGTGGTACTTATATATAATATATA [XGTACX_site8316] | 7.03
TCTTTAGCTTCTTCTTTTTTTTTTTTTTTTTTTTTT [XGTACX_negctrl_site518] | 8.48
ATATATATATATATATGTACATAAACATATATATAT [XGTACX_site1064] | 9.93
CTAATTGTTATTTTGTGTACTTATCATTCGAAATAT [XGTACX_site7963] | 7.13
AAAAAACAAATAAGTAAACACACATATATAATATAT [CACACA_site8830] | 6.84
TAGATGTAAGTACATACACACATATATAAATAAATA [CACACA_site8528] | 7.36
ATATATATTTTAATTACACACAAAAAAAAAAAAAAA [CACACA_site4778] | 7.02
AAAATAATGAAATGAAAAAAAAAAATTTAGATTCTA [CACACA_negctrl_site1385] | 6.52
AAAAAAAAAAAAAATACACACATATTTTATAGGGGA [CACACA_site3261] | 7.19

Sequence | gcPBM binding intensity (ln)
TATTTTTTGAAAAGTTCACACATCCAACTCGAGTTG [CACACA_site4412] | 6.98
TTATATATTTTTAGGTGTACTTTTTTTTTTTTTTTT [XGTACX_site8164] | 7.63
GTCATATATTTATGTACACACATATATATATTTATA [CACACA_site4911] | 7.13
AGGATATATATATTCACACACACATGGAAATATATA [CACACA_site383] | 6.99
ATATATATTTTATATTGTACTTATTATTTTTAGGGC [XGTACX_site723] | 7.35
TATGAATATCTATACACACACATATAAATACACGCT [CACACA_site6853] | 7.08
TTTGTTGGTATGGTTACACACATTTAGGAAATAAAA [CACACA_site1411] | 7.12
TCTTATAAATTAAATATAAAAAAAAAAAAAAAAAAA [XGTACX_negctrl_site77] | 6.91
AGTATTTTGTTTATCACACATATTGGAATTTTCAAT [CACACA_site4686] | 7.23
AAAATAATTCAATGTAGTACAATACAAATTGAGAGA [XGTACX_site5991] | 6.76
AAAATTATACACACACGTACATATAAATAGAAATAT [XGTACX_site1753] | 7.12
AAATGGACAGTATAAAAATGGAGAATATAAAAATTT [CACACA_negctrl_site889] | 6.87
GGTGTTTTTCACAGATGTACACAAATAAAAAAGAAA [XGTACX_site4454] | 7.16
TATATATAAAAAAAAAGTACATATAATATAATATTT [XGTACX_site7902] | 6.88
CCTTTTTATTTTTGTAGTACTACATATACATATCTG [XGTACX_site7791] | 7.59
AAAAAAAAAAAAAATAAATAAATAAATAAATATATA [GTGCAC_negctrl_site382] | 7.04
ATATTAAAAAAATATAAACACACAAAAAAAAAATAT [CACACA_site8283] | 7.15
TATTCAAAGAAAAACTGTACGTGTAGCAAACGTCAT [XGTACX_site7713] | 7.03
TTTTTATAACAGCTTAGTACATATAAGAATTCTTGC [XGTACX_site5890] | 6.93
GACCCCATATACATATGTACATACATAATATATATA [XGTACX_site1817] | 7.56
AATGTACGCATATACACACACATAAATAGATACGTA [CACACA_site3406] | 7.15
AACGAAAACACTACGTGTACCAAACGTCCTACCAAC [XGTACX_site257] | 6.78
AATAGTTAAATACATACATGCATTCATATAATATAT [TGCATGCA_site433] | 6.98

Sequence | gcPBM binding intensity (ln)
TAATTAAGAATATATAGTACATAGTTGAAAAACTTT [XGTACX_site6359] | 6.82
AAGATAAAAATATGCACACATATATATATATATATA [CACACA_site404] | 9.57
TTCAAAAAATATATCTGTACAAATTATGTAGATGAA [XGTACX_site5522] | 6.95
TTTTTTTTTTTTTTTTTTTTACGATATATTTTAAAA [XGTACX_negctrl_site401] | 6.99
TAGATCATAACAATTGCACACATTTGCATTTATATT [CACACA_site1562] | 7.45
TTTTTACTTATTTATTATGTACAATTTCTTCTTTCT [CACACA_negctrl_site264] | 6.73
AAGAAAATGTAGAATTAGAAATAAATGAAGAAATGA [TGCATGCA_negctrl_site548] | 7.15
TATATGTTTAATTTCACACACAAATATACATTTTAA [CACACA_site4171] | 6.99
AGTAGATTTTTATTAGTGCATTTTATACTACAAAAA | 8.89
CATTAGCATTTTATTACACACAATAAATTAGAAGTA [CACACA_site7837] | 7
TTTTAAAACAATGAGATTCCTTTCTTTTTTTCTTTT [CACACA_negctrl_site1320] | 6.31
ATATTTATTTATATCATACACACTAATATGTATATT [CACACA_site7576] | 7.09
TATCCCTTAGAATACACACCCATATGAGGGTGAACT [CACACA_site5610] | 6.73
CTTAATGATAAATACATACACACAAAAAATAATATA [CACACA_site2577] | 7.09
ATATTCTCTTAAATATGTACGTATGTATATATATAT [XGTACX_site5885] | 8.51
CGCAAAACAATGATACGTACATATATATATATATAT [XGTACX_site5883] | 9.45
ATTCTTAAATGTGGTTGTACATATTATCACCTTTAA [XGTACX_site8188] | 6.9
TTTTTAATTTTATATACACACATAAAAGATATGAAG [CACACA_site7470] | 6.96
TAATTCTTTATTTTTCGTACGTAAAACAAAAAATAT [XGTACX_site862] | 7.16
AATGTAAAGAACAAAACATGCAACTAGTTTACTTTT [TGCATGCA_site841] | 6.69
